Reference: PMC4336329 (PLoS ONE, 2015)
Among all 310,000 compounds or so, about 14,000 (4.5%) showed an effect of 50% or more. The effect is printed as a negative number. The list shows a part of the results.

target: human ether-à-go-go-related gene (hERG) potassium channel (human, UniProt Q12809); test: primary screen, population patch clamp on CHO cells stably expressing hERG
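Also: peak tail current of the secondary pulse compared with the same well before compound.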

Sequence of human ether-à-go-go-related gene (hERG) potassium channel (Q12809 whole entry, looked up): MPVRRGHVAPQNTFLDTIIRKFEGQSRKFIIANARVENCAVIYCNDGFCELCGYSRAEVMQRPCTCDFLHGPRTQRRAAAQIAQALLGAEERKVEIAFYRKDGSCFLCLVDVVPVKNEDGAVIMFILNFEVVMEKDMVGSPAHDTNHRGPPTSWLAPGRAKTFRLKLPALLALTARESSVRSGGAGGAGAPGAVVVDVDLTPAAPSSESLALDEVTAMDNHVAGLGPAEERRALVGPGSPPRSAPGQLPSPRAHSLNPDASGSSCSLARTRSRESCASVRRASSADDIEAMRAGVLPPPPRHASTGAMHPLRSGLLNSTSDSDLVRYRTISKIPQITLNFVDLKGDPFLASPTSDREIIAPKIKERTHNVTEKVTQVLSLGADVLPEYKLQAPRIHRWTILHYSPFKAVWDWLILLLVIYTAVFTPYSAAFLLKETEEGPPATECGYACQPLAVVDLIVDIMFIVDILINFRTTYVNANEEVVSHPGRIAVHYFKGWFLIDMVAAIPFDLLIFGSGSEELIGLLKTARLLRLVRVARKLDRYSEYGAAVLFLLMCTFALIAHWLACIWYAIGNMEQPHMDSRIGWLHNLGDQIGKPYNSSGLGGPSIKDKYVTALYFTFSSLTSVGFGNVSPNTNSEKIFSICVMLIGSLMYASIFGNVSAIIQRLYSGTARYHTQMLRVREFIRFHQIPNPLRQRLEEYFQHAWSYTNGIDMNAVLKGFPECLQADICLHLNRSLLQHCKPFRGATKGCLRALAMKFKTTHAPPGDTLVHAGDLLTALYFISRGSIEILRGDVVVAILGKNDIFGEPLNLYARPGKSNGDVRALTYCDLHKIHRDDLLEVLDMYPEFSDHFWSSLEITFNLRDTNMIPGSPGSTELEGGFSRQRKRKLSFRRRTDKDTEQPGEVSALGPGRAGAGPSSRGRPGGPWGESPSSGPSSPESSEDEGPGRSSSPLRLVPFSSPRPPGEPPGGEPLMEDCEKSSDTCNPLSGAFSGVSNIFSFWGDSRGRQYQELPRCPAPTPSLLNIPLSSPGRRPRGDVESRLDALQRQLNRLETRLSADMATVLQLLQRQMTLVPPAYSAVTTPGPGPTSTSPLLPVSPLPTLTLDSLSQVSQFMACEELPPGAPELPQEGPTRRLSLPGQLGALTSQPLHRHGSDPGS

Going from `Cn1c(=O)c(Nc2ccc(Cl)cc2)c2c3c(cccc31)C(=O)c1ccccc1-2` to `CC(c1ccco1)N(C(=O)c1ccccc1NS(=O)(=O)c1ccc(Cl)cc1)c1ccccn1` (stereo not drawn), the “hERG current change (%, negative = inhibition) at 10uM” value falls from 6.18% to -21.3%.

First: Cc1ccccc1NC(=O)Nc1ccccc1C(N)=O
Second: CCOC(=O)/C(=C\C=C\c1ccccc1)NC(=O)c1ccccc1
The “hERG current change (%, negative = inhibition) at 10uM” value of the first is higher: 16.3% for the first, -39.2% for the second.

Going from `CC1(C)CC(=O)C(CC2=C(O)CC(C)(C)CC2=O)C(=O)C1` to `Cc1cc(OC(C)C(=O)NCCN2CCOCC2)c2c(C)cc(=O)oc2c1` (stereo not drawn), the “hERG current change (%, negative = inhibition) at 10uM” value falls from 15% to 12.9%.

Going from `CN(Cc1ccccc1)C(=O)c1ccc(NC(=O)Cc2cccc(NC(=O)C3CCCN(C(=O)C4CCCCC4)C3)c2)cc1` (stereo not drawn) to `CC(=O)N1CCC(C(=O)Nc2ccc(S(=O)(=O)NCCc3ccccc3)cc2)CC1`, the “hERG current change (%, negative = inhibition) at 10uM” value rises from 4.11% to 17.8%.

Compared with `CCOC(=O)C(=Cc1ccc(F)cc1)C(=O)OCC`, `COC(=O)c1c(O)cc(C(C)(C)C)n(-c2ccc(F)cc2)c1=O` is lower in “hERG current change (%, negative = inhibition) at 10uM” value: 1.06% for the first, -1.88% for the second.

First: O=Cc1cn(Cc2cccc([N+](=O)[O-])c2)c2ccccc12
Second: Cn1ncc([N+](=O)[O-])c1C(=O)N/N=C/c1c[nH]c2ccccc12
The “hERG current change (%, negative = inhibition) at 10uM” value of the first is lower: -47.8% for the first, 19.6% for the second.

Compared with `Fc1ccc(CNc2nc(-c3ccco3)cc(C(F)(F)F)n2)cc1`, `O=C(CCc1nnc2ccc(NCc3ccco3)nn12)Nc1ccc(F)cc1` is lower in “hERG current change (%, negative = inhibition) at 10uM” value: 12.6% for the first, -9.82% for the second.

Compared with `Cn1ncc(Br)c1C(=O)NC1CCCCCC1`, `Cc1cccc(-n2c(N)cc(=O)nc2SCC(=O)NC2CCCCC2)c1` is higher in “hERG current change (%, negative = inhibition) at 10uM” value: -24.7% for the first, -1.47% for the second.

Compared with `Cc1ccc(NC(=O)c2ccc(S(=O)(=O)N3CCOCC3)cc2)c(C)c1`, `Cc1ccc(S(=O)(=O)N2CCN(C(=O)CCC(=O)NCCc3ccc(S(N)(=O)=O)cc3)CC2)c(C)c1` is lower in “hERG current change (%, negative = inhibition) at 10uM” value: 7.5% for the first, -0.437% for the second.

`COc1ccc(Cl)cc1Nc1nc(-c2sc(NC(=O)CC(C)C)nc2C)cs1` and `COc1ccc(OC)c(Nc2nc(-c3ccncc3)nc3ccccc23)c1` are the same in “hERG current change (%, negative = inhibition) at 10uM” value: 14.6% for the first, 14.6% for the second.

Compared with `CC(C)(C)c1ccc(OCC(=O)N/N=C/C2CC=CCC2)cc1` (stereo not drawn), `CC(NC(=O)/C(C#N)=C/c1ccc(OCC(=O)O)cc1)c1ccccc1` (stereo not drawn) is higher in “hERG current change (%, negative = inhibition) at 10uM” value: -11.4% for the first, 21.5% for the second.

Going from `O=C(Nc1ccc2c(c1)OCO2)C1CCN(C(=O)c2ccc(Br)cc2)CC1` to `CC(=O)c1cccc(NC(=O)C2CCN(C(=O)c3ccc([N+](=O)[O-])cc3)CC2)c1`, the “hERG current change (%, negative = inhibition) at 10uM” value rises from -70.5% to -69.6%.

Compared with `Cc1ccc2cc3c(NC(=O)C4CCCO4)nn(CC(C)C)c3nc2c1` (stereo not drawn), `CC(=O)c1c(C)nn(CC(O)Cn2c3c(c4cc(C)ccc42)CCCC3=O)c1C` (stereo not drawn) is lower in “hERG current change (%, negative = inhibition) at 10uM” value: 11.7% for the first, -18.2% for the second.

First: O=C(NCCCNC(=O)c1cnccn1)c1cccc(Cl)c1
Second: COC(=O)[C@H](C)NC(=O)c1cc2c(cn1)[nH]c1ccccc12
The “hERG current change (%, negative = inhibition) at 10uM” value of the first is lower: -5.72% for the first, 7.14% for the second.

First: CN(C)S(=O)(=O)N1CCC(Oc2cccc(C(=O)NC3CCCCC3)c2)CC1
Second: COc1ccc(S(=O)(=O)Nc2ccccc2C(=O)OC2CCCN(C)C2)cc1OC.Cl (stereo not drawn)
The “hERG current change (%, negative = inhibition) at 10uM” value of the first is lower: -28.2% for the first, 0.859% for the second.

Compared with `O=C(CC(Cc1ccccc1)C(=O)O)Nc1ccc(Cl)c(Cl)c1` (stereo not drawn), `O=C(Cc1ccccc1)N/N=C/c1cc(Br)cc(Cl)c1O` is lower in “hERG current change (%, negative = inhibition) at 10uM” value: 27.9% for the first, 22.2% for the second.

First: CCc1cccc(C)c1NC(=O)c1ccoc1C
Second: Cc1cc(NC(=O)c2cc(-c3ccc(C)s3)nc3ccccc23)no1
The “hERG current change (%, negative = inhibition) at 10uM” value of the first is lower: 0.315% for the first, 10.7% for the second.

Going from `Cc1cc(C(F)(F)F)nn1CC(=O)NNC(=S)NCC(C)C` to `COc1ccc(COC(=O)Nc2cc3c(C(F)(F)F)nn(C)c3s2)cc1`, the “hERG current change (%, negative = inhibition) at 10uM” value rises from -1.35% to 14.8%.

Going from `COC(=O)c1cc(NC(=O)CC2NCCNC2=O)cc(C(=O)OC)c1` (stereo not drawn) to `C/C(CC(=O)Nc1ccc2c(c1)OCO2)=N\NC(=O)c1ccccc1N`, the “hERG current change (%, negative = inhibition) at 10uM” value falls from 5.72% to -0.312%.

First: COc1ccc(Cl)cc1S(=O)(=O)N1CCC(O)(c2ccc(Cl)cc2)CC1
Second: CCNC(=O)/C(C#N)=C/c1c(N2CCN(c3cccc(Cl)c3)CC2)nc2c(C)cccn2c1=O
The “hERG current change (%, negative = inhibition) at 10uM” value of the first is higher: 28.9% for the first, 6.34% for the second.

Compared with `CC(C)OCC(O)CN1CCN(C(c2ccccc2)c2ccccc2)CC1.Cl` (stereo not drawn), `O=C(O)C(=O)O.c1ccc(-c2ccccc2OCCOCCN2CCCCC2)cc1` is higher in “hERG current change (%, negative = inhibition) at 10uM” value: -58.1% for the first, -44.7% for the second.

Going from `CC(C)c1ccc(NC2CCCN(C(=O)c3ccsc3)C2)cc1` (stereo not drawn) to `COc1ccc(NC(=O)CN(C)C(=O)c2sc3ccccc3c2Cl)cc1`, the “hERG current change (%, negative = inhibition) at 10uM” value falls from -0.745% to -13.6%.

Going from `COc1cc(-c2noc(C)c2/C=C/c2cccc([N+](=O)[O-])c2)cc(OC)c1OC` to `COc1ccc(-c2cc(C(=O)N/N=C/c3ccc(OC)c(COCC(F)(F)C(F)F)c3)c3ccccc3n2)c(OC)c1`, the “hERG current change (%, negative = inhibition) at 10uM” value rises from -2.59% to 18.8%.

Compared with `COc1cc(/C=N/n2c(-c3n[nH]c4c3CCC4)n[nH]c2=S)cc(OC)c1O`, `COc1ccc(CCNC(=S)NC2CCN(Cc3ccccc3)CC2)cc1OC` is lower in “hERG current change (%, negative = inhibition) at 10uM” value: 24.2% for the first, -39.1% for the second.

Going from `Cc1ccc(C)c(OCC(=O)NCCNC(=O)COc2cc(C)ccc2C)c1` to `COc1cccc(N2C(=O)Nc3ccc(Br)cc3C2(O)C(=O)NCCN(C)C)c1` (stereo not drawn), the “hERG current change (%, negative = inhibition) at 10uM” value rises from 7.21% to 8.56%.

Compared with `O=C(c1ccc(COc2c(F)c(F)c(F)c(F)c2F)o1)N1CCN(Cc2ccc3c(c2)OCO3)CC1`, `O=C(Nc1ccc2oc(-c3ccccc3F)nc2c1)c1ccc2c(c1)OCCO2` is higher in “hERG current change (%, negative = inhibition) at 10uM” value: -35.8% for the first, -8.5% for the second.

Going from `COc1cc(NC(=O)c2ccc(-c3ccc(Br)cc3)o2)ccc1NC(=O)C(C)C` to `COc1ccc(C(=O)NC(=S)Nc2cccc(NC(=O)c3ccco3)c2)cc1[N+](=O)[O-]`, the “hERG current change (%, negative = inhibition) at 10uM” value rises from -26.1% to -2.5%.

Compared with `CCc1ccc(OC(C)C(=O)N(Cc2ccccc2)C2CCS(=O)(=O)C2)cc1` (stereo not drawn), `COc1ccc(CC2(CO)CCN(Cc3cccn3-c3ccccn3)CC2)cc1` is lower in “hERG current change (%, negative = inhibition) at 10uM” value: -13.1% for the first, -75.4% for the second.

First: CC(C)n1c(=NC(=O)c2ccco2)c(C#N)cc2c(=O)n3ccccc3cc21
Second: COCC(C)n1c(SCc2cc(=O)n3cc(C)ccc3n2)nc2ccccc2c1=O (stereo not drawn)
The “hERG current change (%, negative = inhibition) at 10uM” value of the first is lower: -52.2% for the first, -33.3% for the second.

Going from `Cn1c(SCC(=O)Nc2nccs2)nnc1-c1ccccn1` to `N/C(=N\OC(=O)COc1ccccc1Cl)c1ccccn1`, the “hERG current change (%, negative = inhibition) at 10uM” value rises from 18% to 28.1%.

Going from `CCS(=O)(=O)N1CCN(c2cccc(C)c2C)CC1` to `O=C(c1cc2c(s1)CCC2)N1CCN(c2ccccc2)CC1`, the “hERG current change (%, negative = inhibition) at 10uM” value rises from -14.5% to -2.48%.

Going from `C#CCOCCOCCOCCNc1nc(N2CCN(C(=O)C([C@@H](C)CC)n3cc(C(N)CC(C)C)nn3)CC2)nc(N2CCN(C(=O)[C@H](CCC(=O)O)n3cc(C(N)Cc4ccc(O)cc4)nn3)CC2)n1.Cl` (stereo partly drawn) to `CC(Oc1ccccc1)C(=O)N1CCN(c2ccc(N3CCCCC3)nn2)CC1` (stereo not drawn), the “hERG current change (%, negative = inhibition) at 10uM” value falls from 1.03% to -28.5%.

Going from `COc1cccc(C2C(C(=O)c3cccs3)=C(O)C(=O)N2CCN(C)C)c1OC` (stereo not drawn) to `COc1ccc(NC(=O)CCC(=O)N(Cc2ccc(OC)c(OC)c2)c2nccs2)cc1`, the “hERG current change (%, negative = inhibition) at 10uM” value rises from -4.22% to 13.5%.

First: N#Cc1c(-c2ccco2)nc(NCC2CCCO2)[nH]c1=O (stereo not drawn)
Second: O=C(NCc1cccc(F)c1)c1noc2c1CCCC2
The “hERG current change (%, negative = inhibition) at 10uM” value of the first is higher: 7.53% for the first, 0.707% for the second.

Going from `Cc1ccc(-c2nnc(Nc3ccc4c(c3)OCO4)c3ccccc23)cc1S(=O)(=O)NC(C)C` to `CC(=O)N(Cc1cccnc1)c1cccc(-c2nc3ccccc3s2)c1`, the “hERG current change (%, negative = inhibition) at 10uM” value falls from -14.1% to -51.1%.

First: O=C(CCN1CCOCC1)NC1CCCN(Cc2ccccc2F)C1 (stereo not drawn)
Second: Cn1c(=Nc2ccc(N3CCOCC3)cc2)ccc2ccccc21
The “hERG current change (%, negative = inhibition) at 10uM” value of the first is higher: 9.34% for the first, -47.5% for the second.

Going from `c1ccc(-n2nnnc2-n2ccnc2)cc1` to `Cc1ccn(-c2cc(O)c(-n3ccc(C)n3)cc2O)n1`, the “hERG current change (%, negative = inhibition) at 10uM” value rises from 4.7% to 18.9%.

First: Cc1c(C(=O)N2CCCCC2)oc2ccc(Br)cc12
Second: CCCC(=O)NC1=C(C#N)C2(CCCC2)Cc2ccccc21
The “hERG current change (%, negative = inhibition) at 10uM” value of the first is lower: -17.6% for the first, 8.35% for the second.

Compared with `CCn1nc(C)c(CN2CCCC(CO)(Cc3cccc(Cl)c3)C2)c1C` (stereo not drawn), `CCOc1cc(N2CCOCC2)c(OCC)cc1NC(=O)CN1C(=O)C2CC=CCC2C1=O` (stereo not drawn) is higher in “hERG current change (%, negative = inhibition) at 10uM” value: -40.8% for the first, -8.84% for the second.

Compared with `Cc1cccc(C(=O)Nc2nsc(N)n2)c1`, `COCCn1c(SCC#N)nnc1-c1ccc(OC)cc1` is lower in “hERG current change (%, negative = inhibition) at 10uM” value: 11.6% for the first, 9.39% for the second.

Compared with `CCN1CCN(C(=O)CCc2nnc3ccc(N4CCC5(CC4)OCCO5)nn23)CC1`, `COCC(=O)NCCc1ccc(S(N)(=O)=O)cc1` is lower in “hERG current change (%, negative = inhibition) at 10uM” value: 24.2% for the first, 19.8% for the second.

Going from `N#C/C(=C/c1ccc(-c2cc(C(=O)O)cc(C(=O)O)c2)o1)c1nc2ccccc2s1` to `Nc1ncnc2c1ncn2[C@@H]1O[C@H](CO)[C@@H](O)[C@H]1O`, the “hERG current change (%, negative = inhibition) at 10uM” value falls from 31.7% to 9.37%.
